Measurements from patent US20250041435A1, “STEAP2 ANTIBODY DRUG CONJUGATES AND USES THEREOF” (MedImmune, LLC, priority 2023, published 2025).

Test system: LNCAP STEAP2 CRSPR 2X KO cells
Experiment: Cytotoxicity assay (CellTiter-Glo 2.0) in STEAP2 knock-out line
Type: cell-based, human
Protocol: The cytotoxicity assays were designed to determine whether LO11 and LO14 TOP1i ADCs could reduce the cell viability of STEAP2 expressing prostate cancer cell lines. The assay relies on the principle that dying cells will produce less adenosine triphosphate (ATP). […] The bioluminescent signal was detected using standard plate-reading methods (SpectraMax M5). Briefly, 24 hours prior to starting the assay, human prostate cancer cells were harvested and counted described above. […] Fifty microliters of each dilution was added to the designated wells and cells were incubated for 5. After removing the treatment media, 50 microliters of RPMI1640 media without Phenol Red and 50 microliters of CTG2.0 (Promega) was added to each well. Plates were incubated for 20 minutes and then transferred to the SpectraMax M5 for luminescence detection.

B1: LO11 TOP1i ADC (conjugate)
heavy: QVQLQQSGPGLVKPSQTLSLTCAISGDSVSRNSAVWNWIRQSPSRGLEWLGRTYYRSKWYNDYAPSVKSRITINPDTSKNQFSLQLNSVTPEDTAVYYCARGLLQNQFYYYMDVWGKGTTVTVSSASTKGPSVFPLAPSSKSTSGGTAALGCLVKDYFPEPVTVSWNSGALTSGVHTFPAVLQSSGLYSLSSVVTVPSSSLGTQTYICNVNHKPSNTKVDKRVEPKSCDKTHTCPPCPAPEFEGGPSVFLFPPKPKDTLMISRTPEVTCVVVDVSHEDPEVKFNWYVDGVEVHNAKTKPREEQYNSTYRVVSVLTVLHQDWLNGKEYKCKVSNKALPASIEKTISKAKGQPREPQVYTLPPSREEMTKNQVSLTCLVKGFYPSDIAVEWESNGQPENNYKTTPPVLDSDGSFFLYSKLTVDKSRWQQGNVFSCSVMHEALHNHYTQKSLSLSPGK
light: EIVMTQSPATLSVSPGERATLSCRASQSVASNLAWYQQKPGQAPRLLIYGASTRATGIPARFSGSGSGTEFTLTISSLQSEDFAVYYCQQYNNWPFTFGPGTKVDIKRTVAAPSVFIFPPSDEQLKSGTASVVCLLNNFYPREAKVQWKVDNALQSGNSQESVTEQDSKDSTYSLSSTLTLSKADYEKHKVYACEVTHQGLSSPVTKSFNRGEC
- cytotoxic effect on cell viability, in words (isogenic STEAP2 KO line): lack of cytotoxic effect
